Test results reported in PubChem BioAssay AID2147 (National Center for Advancing Translational Sciences (NCATS), 2009).
Several values for one entry are separate records, joined by “and”; a condition that tells them apart may be missing. Identical values can stand only once. About 3,600 (1.6%) of roughly 230,000 compounds were called active. The inconclusive results got no clear call from the source; some entries with a clear call stand among them for comparison. Calls come from the whole dose curve; as a rule, active = well fitted inhibition curve with a large enough effect (not every such curve was filed as active); inconclusive = small, poorly fitted or top-dose-only effect, or another doubt; inactive = no such curve, though single readings can be large or run the other way. Where the call is inconclusive, the potency comes from a doubtful curve fit.

Molecular target: Lysine-specific demethylase 4E (Homo sapiens) (UniProt B2RXH2)
Chain of UniProt B2RXH2 (B2RXH2 whole entry, looked up, the tested form may be a part): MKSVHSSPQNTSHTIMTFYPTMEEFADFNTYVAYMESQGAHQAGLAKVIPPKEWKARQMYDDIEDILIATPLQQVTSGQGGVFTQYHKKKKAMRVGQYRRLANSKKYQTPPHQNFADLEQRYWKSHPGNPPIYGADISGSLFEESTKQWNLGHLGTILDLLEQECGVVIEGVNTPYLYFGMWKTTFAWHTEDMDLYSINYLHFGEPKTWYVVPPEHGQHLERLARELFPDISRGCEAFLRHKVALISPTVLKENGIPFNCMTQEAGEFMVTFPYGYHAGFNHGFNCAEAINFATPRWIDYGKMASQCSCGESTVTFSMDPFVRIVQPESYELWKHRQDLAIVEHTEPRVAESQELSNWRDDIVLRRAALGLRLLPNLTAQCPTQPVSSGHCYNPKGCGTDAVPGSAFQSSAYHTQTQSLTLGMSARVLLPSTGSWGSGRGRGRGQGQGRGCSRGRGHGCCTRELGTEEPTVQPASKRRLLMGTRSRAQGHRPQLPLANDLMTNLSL
Experiment: qHTS Assay for Inhibitors of Human Jumonji Domain Containing 2E (JMJD2E)
Conditions: JMJD2E catalytic domain, FDH-coupled NADH fluorescence (FDH is formaldehyde dehydrogenase); series mostly up to 57.1 µM; activity change, negative = inhibition: at the top concentration
Note: nearly all actives have a fitted effect of over 50% in size.
Potency is the fitted concentration of half-maximal effect; tags give direction and shape of the fitted curve.
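Throughout, for activity change, negative = inhibition: 0% = wells with enzyme and -100% = buffer wells without enzyme.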

SMILES | Potency | activity change, negative = inhibition
O=C1NC(=O)C(=Cc2ccc(N3CCOCC3)cc2)C(=O)N1 | inconclusive: 25.1 µM [inhibitor, single point] | 
COc1cccc(-n2nc(C(=O)N3CCC4(CC3)OCCO4)c3ccccc3c2=O)c1 | inconclusive: 39.8 µM [inhibitor, single point] | 
O=P(/C(=N/O)N1CCCCC1)(N1CCOCC1)N1CCOCC1 |  | inactive: 0.275%
COc1cc2ccc(=O)oc2c2ccoc12 | inconclusive: 31.6 µM [inhibitor, partial curve] and inconclusive: 25.1 µM [inhibitor, partial curve] | 
CCCCCCN1CCN(c2ccc(Cl)cc2)CC1 | inconclusive: 39.8 µM [inhibitor, single point] | 
O=C1NC(=O)C(=Cc2ccc(N3CCOCC3)o2)C(=O)N1 | active: 17.8 µM | 
O=c1[nH]c(=O)n(-c2ccccc2)c(O)c1/C=C1/C(c2ccccc2)=Nc2ccccc21 | inconclusive: 35.5 µM [inhibitor, single point] | 
Cn1c(=O)cc(SCC(=O)N2CCC3(CC2)OCCO3)c2ccc(Cl)cc21 | inconclusive: 31.6 µM [inhibitor, single point] | 
CC1=CC2/C=C(\C)CCC(O)C(O)/C=C/C(=O)C23C(=O)NC(CC(C)C)C3C1C (centres undefined) |  | inactive: 1.43%
COCCN1C(=O)NC(=O)/C(=C\c2ccc(F)cc2)C1=O |  | inactive: -31.4%
CC(=O)N1N=C2C3CCN(CC3)C2C1c1cccc2ccccc12 (centres undefined) |  | inactive: -0.455%
O=C(O)/C=C(\CC(=O)O)C(=O)O | inconclusive: 39.8 µM [inhibitor, single point] | 
Nc1nonc1C(=O)N/N=C/c1ccc([N+](=O)[O-])o1 |  | inactive: -5.13%
Cc1ccc(-n2c(O)c(C=NC3CCCC3)c(=O)[nH]c2=O)c(C)c1 |  | inactive: 6.07%
COc1cc2c(cc1OC)CC[N+](C)=C2 | inconclusive: 31.6 µM [inhibitor, partial curve] | 
Cc1cc(=O)[nH]c(SCc2nc3ccccc3c(=O)n2-c2ccccc2C)n1 | inconclusive: 39.8 µM [inhibitor, single point] | 
C=CCc1cc(OC)c2c(c1OC)OCO2 |  | inactive: 2.13%
O=C(O)[C@@H]1CSC(c2cccnc2)N1 (some centres undefined) | inconclusive: 39.8 µM [inhibitor, single point] | 
C[N+]1(C)CCc2cc3c(cc2[C@H]1[C@@H]1OC(=O)c2c1ccc1c2OCO1)OCO3 |  | inactive: -17%
CCN(CC)c1ccc(CC2C(=O)N(C)C(=O)N(C)C2=O)cc1 |  | inactive: -4.44%
O=Cc1c(C(=O)O)n(Cc2ccc(Cl)cc2)c2ccccc12 | inconclusive: 39.8 µM [inhibitor, single point] | 
CCCCN1CCC(O)(c2ccccc2)C(C(=O)c2ccccc2)C1 (centres undefined) |  | inactive: 4.9%
CN1C2CCC1CC(NC(=O)c1nn(C)c3ccccc13)C2 (centres undefined) | inconclusive: 31.6 µM [inhibitor, single point] | 
CCN(CC)c1ccc(/C=C2\C(=O)NC(=O)N(CC3CCCO3)C2=O)cc1 (centres undefined) | inconclusive: 20 µM [inhibitor, partial curve] | 
COc1cc2c(cc1OC)[C@@H]1C(=O)c3ccc4c(c3O[C@@H]1CO2)C[C@H](C(C)C)O4 | inconclusive: 39.8 µM [inhibitor, single point] | 

SMILES | Potency | activity change, negative = inhibition
CN1CCC2(CC1)NC(=O)c1ccccc1N2 | inconclusive: 28.2 µM [inhibitor, partial curve] | 
COc1ccc(C(=O)c2nc3ccccc3n2C(C)C)cc1 | inconclusive: 39.8 µM [inhibitor, single point] | 
Cn1c(O)c(C=NCC2CCNCC2)c(=O)n(C)c1=O | inconclusive: 39.8 µM [inhibitor, single point] | 
CN(C)c1ccc(/C=C2\C(=O)NC(=O)N(CCc3ccc(F)cc3)C2=O)cc1 | inconclusive: 39.8 µM [inhibitor, single point] | 
COc1ccc(N=C2SCCCN2C)cc1 |  | inactive: -8.65%
O=c1c2ccccc2nc(N2CCCC2)n1-c1ccccc1 | inconclusive: 28.2 µM [inhibitor, partial curve] | 
COCCNC(=O)c1c(N)n(CCC(C)C)c2nc3ccccc3nc12 | inconclusive: 28.2 µM [inhibitor, partial curve] | 
O=C1Nc2ccccc2C1Cc1nc2ccccc2c(=O)n1-c1ccccc1 (centres undefined) | inconclusive: 25.1 µM [inhibitor, single point] | 
Cc1cc(Br)ccc1N1C(=O)CC(=O)NC1=O |  | inactive: -1.65%
COc1cc(C)cc(CN2CC=C(c3ccccc3)CC2)c1O | inconclusive: 12.6 µM [inhibitor, partial curve] | 
Clc1ccc(Cl)cc1 |  | inactive: 5.72%
CCOC(=O)c1c(C)n(COCCO)c2ccc(O)cc12 |  | inactive: -22.5%
C=C(C)C(=O)CP(=O)(OCC)OCC |  | inactive: 6.56%
CN1CC[C@]2(C)c3cc(O)ccc3N(C)[C@@H]12 | active: 2.24 µM | 
Cn1ccc(NC(=O)CCl)n1 | inconclusive: 35.5 µM [inhibitor, single point] | 
CCN(CC)c1ccc(/C=C2/C(=O)NC(=O)N(Cc3ccco3)C2=O)cc1 |  | inactive: -25.5%
N=C1/C(=C/c2ccc(OC(=O)c3ccco3)cc2)C(=O)N=C2SC=CN12 | active: 14.1 µM | 
COc1ccc(C2NCc3ccc4c(c3-n3cccc32)OCO4)cc1O (centres undefined) |  | inactive: 0.519%
CCCCn1c(=O)c(C=Nc2cc([N+](=O)[O-])ccc2OC)c(O)n(CCCCl)c1=O | inconclusive: 39.8 µM [inhibitor, single point] | 
CCOC(=O)c1c(C)n(C(C)C)c2ccc(OC(=O)c3ccc(N4C(=O)CCC4=O)cc3)cc12 |  | inactive: -0.701%
COCCNC(=O)c1c(NC(=O)c2ccco2)n(Cc2ccccc2)c2nc3ccccc3nc12 | inconclusive: 28.2 µM [inhibitor, partial curve] | 
CCCCN1C(=O)NC(=O)C2(Cc3c(nc4c(C)cccn4c3=O)N3CCc4ccccc4C32)C1=O (centres undefined) | inconclusive: 39.8 µM [inhibitor, single point] | 
COC(=O)c1ccc(NC2=C(Cl)C(=O)OC2OC(=O)c2ccccc2)cc1 (centres undefined) | inconclusive: 25.1 µM [inhibitor, single point] | 
Cc1ccccc1CN1CCNCC1 |  | inactive: 2.88%
CN(C)c1ccc(/C=C2\CCCN=C2c2cccnc2)cc1 | inconclusive: 39.8 µM [inhibitor, single point] | 

SMILES | Potency | activity change, negative = inhibition
Cc1ccccc1-n1c(O)c(C(c2ccncc2)c2c(O)n(-c3ccccc3C)c(=O)[nH]c2=O)c(=O)[nH]c1=O | active: 17.8 µM | 
C/C(=C/C=C/[C@@H](C)C(=O)O)[C@H]1CN[C@H](C(=O)O)[C@H]1CC(=O)O |  | inactive: -25.2%
CN1/C(=C\C=Nc2ccccc2)C(C)(C)c2ccccc21 | inconclusive: 39.8 µM [inhibitor, single point] | 
CCOC(=O)C1(CCc2ccccc2)CCN(C2CCSCC2)CC1 | inconclusive: 39.8 µM [inhibitor, single point] | 
CN1CCN2c3ccc(N)cc3CC3(C(=O)NC(=O)NC3=O)C2C1 (centres undefined) | active: 3.98 µM | 
NC(N)=Nc1ccc2[nH]c3c(c2c1)C[C@@]1(O)[C@H]2Cc4ccc(O)c5c4[C@@]1(CCN2CC1CC1)[C@H]3O5 | active: 10 µM | 
CCC(CC)NC1CCCCC1OC (centres undefined) | inconclusive: 31.6 µM [inhibitor, single point] | 
Cn1c(O)c(C(=NCCc2c[nH]c3ccccc23)c2ccccc2)c(=O)n(C)c1=O | inconclusive: 25.1 µM [inhibitor, single point] | 
COc1ccc(CNC(=O)C(NC(C)=O)C(C)C)cc1OC (centres undefined) |  | inactive: 1.14%
C/C(=C\C=C/[C@@H](C)C(=O)O)[C@H]1CN[C@H](C(=O)O)[C@@H]1CC(=O)O | active: 12.6 µM | 
COc1cc2c(cc1OC)-c1c(OC)c(OC)cc3c1C(C2)N(C)CC3 (centres undefined) | inconclusive: 28.2 µM [inhibitor, partial curve] | 
CCOC(=O)c1c(N)n(Cc2ccc(OC)cc2)c2nc3ccccc3nc12 | inconclusive: 22.4 µM [inhibitor, partial curve] | 
Ic1cncc(OC[C@@H]2CCN2)c1 | inconclusive: 14.1 µM [inhibitor, single point] | 
COc1ccc(CN2CC3CC(C2)c2cccc(=O)n2C3)cc1OC (centres undefined) | inconclusive: 39.8 µM [inhibitor, single point] | 
CCN(CC)CCOC(=O)c1cc2cc(COC)ccc2o1 | inconclusive: 39.8 µM [inhibitor, single point] | 
COC(=O)C1=CO[C@@H](C)[C@@H]2CN3CC[C@]4(C(=O)Nc5c4ccc(OC)c5OC)[C@H]3C[C@H]12 |  | inactive: -3.59%
O=C(OCC1O[C@@H](OC(=O)c2cc(O)c(O)c(O)c2)[C@@H](OC(=O)c2cc(O)c(O)c(O)c2)[C@@H](OC(=O)c2cc(O)c(O)c(O)c2)[C@@H]1OC(=O)c1cc(O)c(O)c(O)c1)c1cc(O)c(O)c(O)c1 (some centres undefined) | active: 3.16 µM | 
COc1cccc(Oc2c(C)oc3cc(OC(=O)N(C)C)ccc3c2=O)c1 | inconclusive: 39.8 µM [inhibitor, single point] | 
N#CC(C#N)=NNc1ccc(OC(F)(F)F)cc1 |  | inactive: -16.7%
CC([C@H](O)c1ccccc1)N(C)C (some centres undefined) | inconclusive: 35.5 µM [inhibitor, single point] | 
COc1ccc(/C=C2\C(=O)NC(=O)N(CCC3=CCCCC3)C2=O)c(OC)c1 |  | inactive: -2.62%
Cn1cc(NC(=O)CCl)cn1 |  | inactive: -5.24%
CCOP(=O)(OCC)C(Nc1ccc(F)cc1)c1ccccc1 (centres undefined) | inconclusive: 39.8 µM [inhibitor, single point] | 
C=CCN1C[C@H](C)N([C@@H](c2ccccc2)c2ccc(C(=O)N(CC)CC)cc2)C[C@H]1C | inconclusive: 14.1 µM [inhibitor, partial curve] | 
